Laboratory results published in PubChem BioAssay (NCATS).
The shares of active, inactive and inconclusive entries below differ from those in the screen. A potency beside an inconclusive call is a rough fit, not a confirmed value. Calls of active or inactive are those of the source. Unless noted, the call rests on the fitted dose curve; in most records, active means well fitted curve in the direction sought with a large enough effect; inconclusive means small, poorly fitted or top-dose-only effect, or another doubt; inactive means no such curve, though single readings can be large; an effect the other way counts as inactive or inconclusive.

Legend:
[1] = biological target: Cytochrome P450 2D6 (Homo sapiens) (UniProt P10635); assay: Cytochrome P450 family 2 subfamily D member 6 (CYP2D6) small molecule antagonists: luciferase biochemical (cell-free) qHTS assay (AID 1645840; active means well fitted curve in the direction sought with a large enough effect in the repeat runs; inconclusive means weak or mixed curves; inactive means no such curve, though single readings can be large; an effect the other way counts as inactive or inconclusive; further: nearly all actives have a fitted effect of over 55% in size)
How it was run: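 P450-Glo luminescent screen: recombinant CYP2D6 enzyme–proluciferin substrate mix preincubated with compound 10 min at room temperature, then NADPH regeneration added for 1 h at room temperature. Detection reagent added for 20 min; luciferin light read as relative luminescence units.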

HEK293 = assay: Cytotoxic Profiling of Annotated Libraries Using Quantitative High-Throughput Screening (AID 1296008); details: Five cell lines viability, CellTiter-Glo ATP luminescence, 48-72 h; max response: stronger effect = lower value; further: nearly all actives have a fitted effect of over 60% in size; on max response: on the % scale 0 is the no-effect control and ±100 the full control effect
How it was run: (§1)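 Cytotoxicity was measured as CellTiter-Glo ATP luminescence, read after 10 min at room temperature. Compound treatment of the cells lasted 48 or 72 hr at 37 degrees Celsius in a qHTS format.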

KB-3-1 = assay: as above; details: Five cell lines viability, CellTiter-Glo ATP luminescence, 48-72 h; max response: stronger effect = lower value
How it was run: as §1

NIH3T3 = assay: as above; details: Five cell lines viability, CellTiter-Glo ATP luminescence, 48-72 h; max response: stronger effect = lower value
How it was run: as §1

C33A = assay: Primary qHTS to identify gynecologic anti-cancer compounds using libraries of approved drugs and bioactive compounds (AID 1345084); details: Gynecologic cancer cell panel viability, ATPlite luminescence, 48 h; series mostly up to 57.5 µM; further: nearly all actives have a fitted effect of over 55% in size; on activity change, negative = cytotoxicity: on the % scale 0 is the no-effect control and ±100 the full control effect
How it was run: (§2)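 Cells, 1,000 per well, were allowed to settle for 16 h at 37 C before compound addition. Five concentrations were tested for 48 h, and viability was read by ATPlite luminescence after 15 min at room temperature.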

CAOV3 = assay: as above; details: Gynecologic cancer cell panel viability, ATPlite luminescence, 48 h; series mostly up to 57.5 µM
How it was run: as §2

CASKI = assay: as above; details: Gynecologic cancer cell panel viability, ATPlite luminescence, 48 h; activity change, negative = cytotoxicity: at 57.5 µM (top of the series)
How it was run: as §2

HeLa = assay: as above; details: Gynecologic cancer cell panel viability, ATPlite luminescence, 48 h; series mostly up to 57.5 µM
How it was run: as §2

Hek293T = assay: as above; details: Gynecologic cancer cell panel viability, ATPlite luminescence, 48 h, control line for the selectivity index; series mostly up to 57.5 µM
How it was run: as §2

OV90 = assay: as above; details: Gynecologic cancer cell panel viability, ATPlite luminescence, 48 h; series mostly up to 57.5 µM
How it was run: as §2

SKOV3 = assay: as above; details: Gynecologic cancer cell panel viability, ATPlite luminescence, 48 h; series mostly up to 57.5 µM
How it was run: as §2

Tov-21-G = assay: as above; details: Gynecologic cancer cell panel viability, ATPlite luminescence, 48 h; activity change, negative = cytotoxicity: at 57.5 µM (top of the series)
How it was run: as §2

Tov112D = assay: as above; details: Gynecologic cancer cell panel viability, ATPlite luminescence, 48 h; activity change, negative = cytotoxicity: at 57.5 µM (top of the series)
How it was run: as §2

HaCat = assay: Cytotoxic Profiling of Annotated Libraries Using Quantitative High-Throughput Screening (AID 1296008); details: Five cell lines viability, CellTiter-Glo ATP luminescence, 48-72 h; max response: stronger effect = lower value; further: nearly all actives have a fitted effect of over 60% in size; on max response: on the % scale 0 is the no-effect control and ±100 the full control effect
How it was run: as §1

[2] = Primary qHTS for inhibitors of nuclear receptor binding SET domain protein 2 (NSD2) in an isogenic RCH-ACV NSD2 p.E1099K mutant (9B) (AID 1645876); further: nearly all actives have a fitted effect of over 70% in size
[3] = Primary qHTS for inhibitors of nuclear receptor binding SET domain protein 2 (NSD2) in an RCH-ACV wild type WT cells (2C) (AID 1645877); details: activity change, negative = cell killing: at 44.9 µM (top of the series); further: nearly all actives have a fitted effect of over 70% in size; on activity change, negative = cell killing: on the % scale 0 is the no-effect control and ±100 the full control effect
PA-1 = assay: Primary qHTS to identify gynecologic anti-cancer compounds using libraries of approved drugs and bioactive compounds (AID 1345084); details: Gynecologic cancer cell panel viability, ATPlite luminescence, 48 h; series mostly up to 57.5 µM; further: nearly all actives have a fitted effect of over 55% in size
How it was run: as §2

[4] = P-glycoprotein substrates identified in KB-8-5-11 adenocarcinoma cell line, qHTS therapeutic library screen (AID 1346987); further: nearly all actives have a fitted effect of over 65% in size
How it was run: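 P-gp-mediated resistance screen: KB-8-5-11 cells treated 72 h with compounds in dose-response. CellTiter-Glo viability.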
Potency means the concentration at half of the fitted maximal effect; tags describe the fitted curve by direction and shape.

UniProt P10635, sequence (P10635 whole entry, looked up): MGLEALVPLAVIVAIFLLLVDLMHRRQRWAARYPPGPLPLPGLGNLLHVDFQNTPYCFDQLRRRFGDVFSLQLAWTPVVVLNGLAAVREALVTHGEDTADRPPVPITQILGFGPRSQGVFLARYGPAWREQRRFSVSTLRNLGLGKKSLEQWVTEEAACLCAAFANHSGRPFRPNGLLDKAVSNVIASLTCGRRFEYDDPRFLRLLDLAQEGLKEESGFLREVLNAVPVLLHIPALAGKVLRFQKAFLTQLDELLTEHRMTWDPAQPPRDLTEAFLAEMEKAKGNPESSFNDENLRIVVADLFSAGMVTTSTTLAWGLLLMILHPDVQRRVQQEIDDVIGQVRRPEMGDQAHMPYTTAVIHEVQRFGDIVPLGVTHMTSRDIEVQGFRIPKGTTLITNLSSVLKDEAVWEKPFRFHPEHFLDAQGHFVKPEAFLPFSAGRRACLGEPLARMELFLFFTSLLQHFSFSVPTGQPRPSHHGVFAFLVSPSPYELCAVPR

Cc1c(C(=O)N2CCOc3ccc(-c4ccc(N)nc4)cc3C2)ccc(S(C)(=O)=O)c1F
inconclusive: Potency [1] 21.3 µM [inhibitor, single point] | Potency (C33A) 7.08 µM [cytotoxic, partial curve, poor fit] | Potency (CAOV3) 28.2 µM [cytotoxic, partial curve, poor fit] | Potency (CASKI) 11.2 µM [cytotoxic, partial curve] | Potency (HeLa) 35.5 µM [cytotoxic, single point] | Potency (Hek293T) 8.91 µM [cytotoxic, partial curve] | Potency (OV90) 11.2 µM [cytotoxic, partial curve, poor fit] | Potency (SKOV3) 3.55 µM [cytotoxic, full curve, poor fit] | Potency (Tov-21-G) 7.08 µM [cytotoxic, full curve] | Potency (Tov112D) 6.31 µM [cytotoxic, full curve]
active: Potency (HEK293) 5.8 µM | Potency (KB-3-1) 7.31 µM | Potency (NIH3T3) 11.6 µM

N[C@@H](COP(=O)(O)O)C(=O)O
inconclusive: Potency (HaCat) 3.66 µM [inhibitor, single point]
inactive: max response (HEK293) -2.26%

CN(C)C1CCN(C(=O)c2ccc(NC(=O)Nc3ccc(-c4nc(N5CCOCC5)nc(N5CCOCC5)n4)cc3)cc2)CC1
active: Potency [2] 0.0417 µM | Potency [3] 0.0332 µM | Potency (HEK293) 0.0517 µM | Potency (KB-3-1) 0.058 µM | Potency (NIH3T3) 0.13 µM | Potency (CASKI) 0.282 µM | Potency (HeLa) 0.562 µM | Potency (Hek293T) 0.398 µM
inconclusive: Potency (C33A) 0.1 µM | Potency (CAOV3) 0.282 µM [cytotoxic, full curve, poor fit] | Potency (OV90) 0.251 µM [cytotoxic, full curve, poor fit] | Potency (PA-1) 0.398 µM [cytotoxic, full curve, poor fit] | Potency (SKOV3) 0.562 µM | Potency (Tov-21-G) 10 µM | Potency (Tov112D) 0.126 µM

CC(C)=CCC[C@](C)(O[C@@H]1O[C@H](CO)[C@@H](O)[C@H](O)[C@H]1O)[C@H]1CC[C@]2(C)[C@@H]1[C@H](O)CC1[C@@]3(C)CC[C@H](O)C(C)(C)C3[C@@H](O[C@@H]3O[C@H](CO)[C@@H](O)[C@H](O)[C@H]3O[C@@H]3OC[C@@H](O)[C@H](O)[C@H]3O)C[C@]12C (some centres undefined)
inactive: activity change, negative = cell killing [3] -29.2% [at 9.23 µM] | max response (HEK293) -0.716%
inconclusive: Potency (HaCat) 0.0011 µM [inhibitor, full curve, poor fit]

N#Cc1ccc(Nc2nc(-c3ccc(O)cc3O)cs2)cc1C(F)(F)F
inconclusive: Potency [4] 16.4 µM [inhibitor, single point] | Potency [3] 18.3 µM [inhibitor, single point] | Potency (KB-3-1) 18.4 µM [inhibitor, single point] | Potency (NIH3T3) 29.1 µM [inhibitor, single point] | Potency (C33A) 6.31 µM [cytotoxic, full curve, poor fit] | Potency (CAOV3) 12.6 µM [cytotoxic, partial curve, poor fit] | Potency (Hek293T) 14.1 µM [cytotoxic, partial curve, poor fit] | Potency (OV90) 31.6 µM [cytotoxic, single point]
active: Potency (HEK293) 3.26 µM | Potency (CASKI) 20 µM | Potency (HeLa) 7.94 µM | Potency (PA-1) 8.91 µM | Potency (SKOV3) 8.91 µM | Potency (Tov-21-G) 5.01 µM

Fc1ccc2[nH]c(CN3CCN(c4ccccn4)CC3)cc2c1
inconclusive: Potency [4] 18.4 µM [inhibitor, single point] | Potency [2] 23 µM [inhibitor, single point] | Potency [3] 12.9 µM [inhibitor, partial curve] | Potency (HEK293) 29.1 µM [inhibitor, single point] | Potency (HaCat) 25.9 µM [inhibitor, single point]

c1cc(CN2CCCCC2)cc(OCCCNc2nc3ccccc3s2)c1
inactive: max response (KB-3-1) -9.4% | Potency (CAOV3) | Potency (PA-1)
inconclusive: Potency [2] 21.1 µM [inhibitor, single point] | Potency [3] 23.7 µM [inhibitor, single point] | Potency (HEK293) 33.5 µM [inhibitor, single point] | Potency (NIH3T3) 26.6 µM [inhibitor, single point] | Potency (Hek293T) 35.5 µM [cytotoxic, single point] | Potency (OV90) 31.6 µM [cytotoxic, single point] | Potency (SKOV3) 22.4 µM [cytotoxic, single point]
active: Potency [4] 14.6 µM | Potency [1] 1.74 µM
